Reference: PubChem BioAssay AID1346428 (National Center for Advancing Translational Sciences (NCATS), 2018)
Out of some 48,000 compounds screened, about 1,200 (2.5%) were called active. Another 2% or so got no clear call; they are omitted.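 The calls were made as follows: active = activation of at least 60% and not above a set upper limit (about 1 call in 100 departs from these limits); inconclusive = activation of 40% to 60%, or above that upper limit; inactive = activation under 40%.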 This is one part of the list.

Biological target: Probable G-protein coupled receptor 32 (Homo sapiens) (UniProt O75388)
UniProt O75388, sequence (O75388 whole entry, looked up): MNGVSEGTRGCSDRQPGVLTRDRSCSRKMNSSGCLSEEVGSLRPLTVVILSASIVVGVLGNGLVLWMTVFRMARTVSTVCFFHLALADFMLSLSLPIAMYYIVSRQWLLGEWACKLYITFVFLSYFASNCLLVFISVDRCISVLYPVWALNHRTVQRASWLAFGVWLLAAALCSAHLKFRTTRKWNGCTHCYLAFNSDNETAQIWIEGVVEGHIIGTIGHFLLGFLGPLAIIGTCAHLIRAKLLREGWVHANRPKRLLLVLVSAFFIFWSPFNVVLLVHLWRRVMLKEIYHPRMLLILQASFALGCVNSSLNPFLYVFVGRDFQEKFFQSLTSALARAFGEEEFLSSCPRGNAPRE
Assay: qHTS for Agonists of Human Resolvin D1 Receptor DRV1
Conditions: CHO-K1 GPR32 beta-arrestin PathHunter luminescence, 90 min; at 76.9 µM; stronger effect = higher value; zero percent set by DMSO-only wells
From the text: Endogenous resolution of inflammation is known to be transduced through various GPCRs and their natural mediators of lipid nature. Resolvin D1 (RvD1) is one of the active players in resolution of acute inflammation through regulation of anti-inflammatory pathways; it is known to enhance phagocytosis of human macrophages, limits neutrophils infiltration, etc. […] The search for GPR32-activating small molecules with anti-inflammatory effects similar to its natural omega-3 derivative ligand in order to use them as research tools for further studies of inflammation and its resolution was the goal of this screening project. For primary screening assay, we used CHO-K1 GPR32 beta-arrestin cell line (DiscoveRx, #93-0321C2A) and the PathHunter(R) beta-Arrestin Assay (DiscoveRx) which measures recruitment of beta-arrestin to the GPR32 and generates chemiluminescent signal. These engineered cells stably transfected with GPR32 co-express GPR32-fused small 42-amino acid fragment of beta-Gal called ProLinktrade mark, and […] -tagged beta-Arrestin fusion protein. When GPR32 is activated by a ligand, it stimulates binding of beta -Arrestin to ProLink-tagged GPR32, and two parts of beta-Gal complement forming a functional enzyme. Upon substrate (PathHunter(R) Detection reagent) addition, beta-Gal hydrolyzes it and generates a chemiluminescent signal.
The cells were thawed and plated in thawing media containing F-12 HAM (Invitrogen, #11765-054), 10% FBS (Invitrogen, #10082), 1x Glutamine, and 1x Pen/Strep onto the 175-mm flask for 24 hours. Then, thawing media was replaced with Growth media which contains 800microg/mL Geneticin (Invitrogen, #10131) and 300microg/mL Hygromycin B (Invitrogen, #10687) in addition to described above. For the assay, the cells were harvested at ~80% confluent stage with Cell Dissociation buffer (Gibco, #13151), and seeded at 2,500 cells/ 3microL/well in assay media (PathHunter(R) Cell Plating Reagent, DiscoverX, #93-0563R1B) using MultiDrop Combi dispenser (Thermo Scientific, Logan, UT) onto white solid bottom tissue culture-treated 1536-well plates (Greiner # 789173-F) and allowed to attach overnight at 37 degrees C, 95% humidity, 5% CO2, . Next, 23nL/well of compound solutions in DMSO were added with a Pin Tool (Kalypsis, San Diego, CA) to the assay plates. As the basal control (EC0), 23 nL/well of DMSO was used on each plate. The cells were incubated in the presence of compounds or DMSO for 90 minutes at 37 degrees C, 5% CO2. Subsequently, 1.5microL/well of PathHunter(R) Detection Reagent prepared per the manufacturer's instructions was added to the assay plates with BioRAPTR FRDtrade mark dispenser (Beckman Coulter, San Francisco, CA) and incubated for 1 hour at ambient temperature prior to the measurement of the luminescent signal on ViewLux(R) uHTS Microplate Imager (Perkin Elmer, Waltham, MA).

Structure (SMILES)	activation
CCOc1cc2sc(N3CCC(C(=O)Nc4ccccc4C(=O)OC)CC3)nc2cc1Br	inactive: 1.22%
COc1ccc(NC(=O)Cn2c(=O)n(-c3cccc(C)c3)c(=O)c3c2c2cc(C)ccc2n3C)cc1Cl	inactive: -5.86%
Cc1ccc(NC(=O)c2cn3c4c(ccc(Cl)c4c2=O)OC(C)C3)cc1C (stereo unspecified)	inactive: 4.01%
CCOCCCNC(=O)c1cc2c(=O)n(C)c3ccccc3c2n1C	inactive: 5.43%
O=C(COCc1cc(-c2cccs2)on1)Nc1cc(Cl)ccc1O	inactive: 29.1%
Cc1ccc(NC(=O)COc2ccc(-c3nn(C)c(=O)c4ccccc34)cc2)cc1	inactive: 25.8%
COc1ccc(C)cc1NC(=O)CN1C(=O)COc2ccc(S(=O)(=O)N3CCOCC3)cc21	inactive: -13.6%
COc1ccc(C(=O)Nc2cc(-c3ccccc3)nn2-c2ccccc2)cc1	inactive: -22.6%
CCOC(=O)c1sc(NC(=O)C(C)Oc2ccc(OC)cc2)c(C(=O)OCC)c1C (stereo unspecified)	inactive: -28.5%
CCOc1ccccc1NC(=O)Cn1c(=O)oc2cc(S(=O)(=O)NCc3ccccc3)ccc21	inactive: -5.45%
CN(C)c1ccc(CNC(=O)C2CCCN(S(=O)(=O)c3ccc4c(ccn4C)c3)C2)cc1 (stereo unspecified)	inactive: 20.7%
Cc1ccc(CNC(=O)C2CCN(S(=O)(=O)Cc3ccccc3)CC2)cc1	inactive: 15.9%
Cc1nc(-c2ccc(OCC(C)C)c(C#N)c2)sc1C(=O)O	inactive: -4.21%
COC(=O)C1=C(C)NC(=O)C1(NC(=O)c1ccc(Cl)cc1)C(F)(F)F (stereo unspecified)	inactive: -6.51%
COc1ccc(C2N=C(N)Nc3nc4ccccc4n32)c(OC)c1OC (stereo unspecified)	inactive: -1.17%
CCN1CCC(N(Cc2cccc(OC)c2)C(=O)Nc2cccc(C)c2C)CC1	inactive: -2.86%
CC1=Nc2cc(C(=O)NCc3ccc(C)cc3)ccc2Sc2ccc(Cl)cc21	inactive: -22.9%
Clc1ccc(N2CCN(Cc3c[nH]c4ncccc34)CC2)cc1	inactive: 10.4%
Cc1nn(-c2ccccc2)c(OC(=O)c2ccccc2Cl)c1S(=O)(=O)c1ccccc1	inactive: -2.46%
CCOc1ccc(-n2cc(-c3ccccc3)c3c(NC4CCCCC4)ncnc32)cc1	inactive: -14.2%
Cc1ccc(CNC(=O)CCS(=O)(=O)c2ccc3c(c2)CC(C)N3C(=O)C2CC2)cc1 (stereo unspecified)	inactive: -1.76%

Structure (SMILES)	activation
CCOc1ccc(NC(=O)CSC2=Nc3ccccc3C3=NC(CCC(=O)NCc4cccs4)C(=O)N23)cc1 (stereo unspecified)	inactive: -8.6%
CCOc1ccc(-c2nnc(SCC(=O)NCc3ccc(C)cc3)nc2-c2ccc(OCC)c(OC)c2)cc1OC	inactive: -7.02%
COc1ccc2c(c1)c1c(c(=O)n(-c3cccc(Cl)c3)c(=O)n1CC(=O)NCC1CCCO1)n2C (stereo unspecified)	inactive: -7.62%
COCCNC(=O)Cn1cnc2sc(C)c(S(=O)(=O)N3CCN(c4ccccc4OC)CC3)c2c1=O	inactive: 1.51%
CCc1nn2c(=O)cc(COC(=O)c3ccccc3NC(=O)COc3ccc(F)cc3)nc2s1	inactive: -15.9%
COc1cc(CNCCSc2nnnn2C)ccc1OCc1ccc(F)cc1	inactive: 2.63%
CC(CNC(=O)c1nnc(Cc2cccc(F)c2)o1)c1ccccc1 (stereo unspecified)	inactive: -3.41%
CCOC(=O)c1[nH]c(C)c(CCC(=O)Nc2cccc(C(F)(F)F)c2)c1C	inactive: -11.2%
COc1ccccc1C(=O)NCCSc1c(C)[nH]c2ccccc12	inactive: 2.96%
COc1ccc(N2CC(NC(=O)C3CC3)CC2=O)cc1 (stereo unspecified)	inactive: -8.64%
CCC(NC(=O)Nc1ccc(OC)c(OC)c1)c1c(-n2cccc2)sc2c1CCN(C)C2 (stereo unspecified)	inactive: -26.3%
CC(=O)c1cccc(NC(=O)[C@H](Cc2ccccc2)N2Cc3ccccc3C2=O)c1	inactive: -5.43%
CCc1ccc(NC(=O)Cn2c(=O)c(CNc3ccccc3)cc3cc(OC)c(OC)cc32)cc1	inactive: -46%
COc1ccc(CCNC(=O)c2ccc3c(c2)N=C(C)c2cc(C)ccc2S3)cc1OC	inactive: -12.4%
O=c1oc2ccc3ccccc3c2cc1-c1nnc(Nc2ccc(Cl)cc2Cl)s1	inactive: 0.367%
COc1cccc(NC(=O)CSc2nc(=O)n(Cc3ccccn3)c3c2CCC3)c1	inactive: 0.255%
COc1ccc(-c2nc3ccccc3o2)cc1NC(=O)C(C)(C)Oc1ccc(Br)cc1	inactive: -4.74%
Cc1cccc(NC(=O)C2CCCN(S(=O)(=O)c3c(C)[nH]c(=O)[nH]c3=O)C2)c1C (stereo unspecified)	inactive: -3.6%
CCOC(=O)c1c(NC(=O)c2ccc(S(=O)(=O)N(CC(C)C)CC(C)C)cc2)sc2c1CCN(CC)C2	inactive: 32.9%
O=C(Nc1nc(-c2ccccc2)ns1)c1ccc(Cl)cc1	inactive: 4.58%
CC(C(=O)O)c1ccc2c(c1)CC(=O)c1ccccc1S2 (stereo unspecified)	inactive: 6.11%

Structure (SMILES)	activation
CCN(CC)c1ccc(NC(=O)C2CCN(S(=O)(=O)c3ccc4c(c3)oc(=O)n4C)CC2)c(C)c1	inactive: 3.94%
COc1ccc(CN(C(=O)c2cc(=O)c3ccccc3o2)C2CCS(=O)(=O)C2)cc1OC (stereo unspecified)	inactive: -15.3%
COc1ccccc1N1CCN(C(=O)c2ccc3c(c2)N(Cc2cc(C)ccc2C)C(=O)c2ccccc2S3(=O)=O)CC1	inactive: -11.4%
Cc1cccc(NC(=O)C(NS(=O)(=O)c2cccc3nsnc23)c2ccccc2)c1C (stereo unspecified)	inactive: -18.3%
Cc1ccc(NC(=O)Cn2c(=O)n(Cc3ccco3)c(=O)c3sc4ccccc4c32)c(C)c1	inactive: -3.78%
CC(C)(C)OC(=O)N1CCC(c2c(C(=O)N3CCN(c4ccccn4)CC3)cnn2-c2cccc(F)c2)CC1	inactive: -12.4%
COc1ccc(N2CCN(S(=O)(=O)c3cc(Br)cc4c3N(C(=O)C3CC3)CC4)CC2)cc1	inactive: 27%
CCOC(=O)c1ccc(NS(=O)(=O)c2ccc3c(c2)CCN3C(=O)CC)cc1	inactive: -10.9%
O=C(OCC(COC(=O)c1cccnc1)(COC(=O)c1cccnc1)COC(=O)c1cccnc1)c1cccnc1	inactive: 5.08%
CCOC(=O)c1c(C)c(-c2ccccc2)n(CC(=O)NCc2ccccc2)c1C	inactive: 28.3%
COc1cc2c(=O)c(S(=O)(=O)c3ccc(C(C)C)cc3)cn(Cc3ccccc3C)c2cc1OC	inactive: 8.61%
Cc1ccc(C(=O)NCC(c2ccco2)S(=O)(=O)c2ccccc2)cc1C (stereo unspecified)	inactive: -3.29%
CSc1nc(N)c2ncn([C@@H]3O[C@H](COP(=O)(O)OP(=O)(O)O)C(O)[C@H]3O)c2n1 (stereo partly specified)	inactive: 1.78%
O=C(Nc1cccc(C(F)(F)F)c1)c1cc2nc(-c3ccco3)cc(C(F)(F)Cl)n2n1	inactive: 37.4%
Cc1cc(C)c(Cn2c(=O)n(Cc3ccccc3)c(=O)c3c(C)c(C)sc32)c(C)c1	inactive: 9.84%
O=C(CSc1nccn1Cc1ccccc1)Nc1nc2ccccc2s1	inactive: -10.3%
COc1ccc(OC)c(NC(=O)COCc2cc(-c3ccco3)on2)c1	inactive: -18%
CCOC(=O)c1cc(-c2ccccc2)n(CCC(=O)NCCc2ccc(C)cc2)c1C	inactive: -28%
COc1ccc(-n2nc(C(=O)N3CCCCC3)c3c4ccccc4n(C)c3c2=O)cc1Cl	inactive: -9.35%
Cc1ccc(S(=O)(=O)c2nnn(CC(=O)Nc3ccccc3C)c2N)cc1	inactive: 14.5%
CCCCNC(=O)Nc1ccc2c(c1)N(C)C(=O)c1ccccc1S2	inactive: -9.38%

Structure (SMILES)	activation
CCN(CC)C(=O)CN1C(=O)COc2ccc(S(=O)(=O)N3CCOCC3)cc21	inactive: -19.6%
CCc1ccc(NC(=O)N2CCN(Cc3nc4ccc(C)cc4o3)CC2)cc1	inactive: 0.249%
O=C(CSc1nc2c([nH]c3ccccc32)c(=O)n1-c1ccc(Cl)cc1)NC1CCCCC1	inactive: -16.7%
CC(=O)[C@H]1CC[C@H]2[C@@H]3CC=C4C[C@@H](O)CC[C@]4(C)[C@H]3CC[C@]12C	inactive: 28.5%
COc1ccc(NC(=O)Cn2nnc(C(=O)NCc3ccco3)c2N)c(OC)c1	inactive: 17.4%
COc1ccccc1NC(=O)c1c(C)cc(C)nc1SCC(=O)Nc1ccc(C)cc1	inactive: -23.9%
CC(=O)Nc1ccc(S(=O)(=O)NCC2CCC(C(=O)NCc3ccccc3)CC2)cc1 (stereo unspecified)	active: 98.8%
Cc1cc(Nc2cccc(Br)c2)n2c(nc3ccccc32)c1C#N	inactive: 19.4%
Cc1ccc(N2CCN(C(=O)c3cn(C)c4ccc(S(=O)(=O)N5CCCC5)cc4c3=O)CC2C)cc1 (stereo unspecified)	inactive: -16.2%
CCOc1ccc(NC(=O)CN2C(=O)c3ccccc3Sc3ccc(C(=O)OC)cc32)cc1	inactive: -3.35%
COc1cc(NC(=O)CSc2nc(-c3ccccc3)no2)cc(OC)c1	inactive: 14.6%
Cc1cc(C)cc(-n2c(SCC(=O)NCc3ccc(F)cc3)nc3c([nH]c4ccccc43)c2=O)c1	inactive: 18.5%
Cc1ccc2c(c1)c(=O)c1ccccc1n2CCCC(=O)Nc1ccc(Cl)c(Cl)c1	inactive: -1.01%
Cc1cccc(C)c1NC(=O)C(=O)NCC(c1cccnc1)N1CCc2ccccc21 (stereo unspecified)	inactive: -23%
COC(=O)c1sc(-c2ccccc2)cc1NC(=O)c1cccc(Cl)c1	inactive: 4.12%
COc1cccc(NC(=O)CN2C(=O)CC(c3ccco3)Sc3ccccc32)c1 (stereo unspecified)	inactive: -6.18%
CN(C)c1ccc(C(=C2C=CC(=[N+](C)C)C=C2)c2ccc(N(C)C)cc2)cc1	inactive: -78.5%
COc1cc(NC(=O)c2cc3c(=O)n(Cc4ccco4)ccc3nc2C)cc(OC)c1OC	inactive: -4.77%
